Values joined by “and” are separate entries in the source; they are usually repeats but may differ in a detail not shown here. Equal values may be shown once. Among all 420,000 compounds or so, about 64,000 (15%) were called active. Inconclusive means that the source gave no clear call. Such entries were picked first, then a sample of the others. Calls come from the whole dose curve; as a rule, active = well fitted inhibition curve with a large enough effect; inconclusive = small, poorly fitted or top-dose-only effect; inactive = flat fitted curve, though single readings scatter. Where the call is inconclusive, the potency comes from a doubtful curve fit.
test: qHTS for Inhibitors of human tyrosyl-DNA phosphodiesterase 1 (TDP1): qHTS in cells in absence of CPT; details: DT40 Tdp1-/- hTDP1 cells, no CPT, ATP luminescence, 48 h; series mostly up to 46.2 µM; note: nearly all actives have a fitted effect of over 55% in size
How it was run: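 Stably hTDP1-transfected Tdp1-null chicken DT40 cells were treated with library compounds minus camptothecin and grown for at least 48 hr at 37 °C, after which cellular ATP was quantified by luminescence.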
Potency is the fitted concentration of half-maximal effect; tags give direction and shape of the fitted curve.

Row | SMILES | Potency
1 | CCC1CO/C(=C(\C(Cl)=C(Cl)Cl)[N+](=O)[O-])N1Cc1ccc(Cl)nc1 (centres undefined) | inactive
2 | CCOc1ccc(CN(CCc2ccc3c(c2)OCO3)Cc2cccc(Br)c2)cc1 | inconclusive: 25.9 µM [inhibitor, partial curve]
3 | CC(C)Nc1nc(Cl)nc(NC(C)C)n1 | inactive
4 | COc1ccc([C@H]2C[C@H](O)[C@@H](n3cc(COC(=O)c4ccccc4)nn3)CN2Cc2cccs2)cc1 | inconclusive: 29.1 µM [inhibitor, single point]
5 | CCCC(C)c1nnc(NC(=O)CCS(=O)(=O)c2ccccc2)s1 (centres undefined) | active: 4.11 µM
6 | C[S+](CC[C@H](N)C(=O)O)C[C@H]1O[C@@H](n2cnc3c(N)ncnc32)[C@H](O)[C@@H]1O (some centres undefined) | inconclusive: 9.44 µM [inhibitor, partial curve] and inconclusive: 3.76 µM [inhibitor, full curve, poor fit] and inconclusive: 18.4 µM [inhibitor, single point]
7 | c1ccc2oc(N3CCNCC3)nc2c1 | inactive
8 | COC(=O)C1=C(c2cccc(OC)c2OC)C[C@@H]2CC[C@H]1N2C(=O)N1CCC(C)CC1 | active: 13 µM
9 | COC1C(O)C(C)OC(OC2CCC3(C=O)C(CCC4C3CCC3(C)C(C5=CC(=O)OC5)CCC43O)C2)C1O (centres undefined) | active: 0.206 µM
10 | Nc1ccc([N+](=O)[O-])cc1 | inactive
11 | COC(=O)C1=C(c2ccc(C(C)=O)cc2)C[C@@H]2CC[C@H]1N2C(=O)NCCNC(C)=O | inactive
12 | c1ccc(Nc2ccc(Nc3ccccc3)cc2)cc1 | active: 6.51 µM
13 | C=C1C/C(=C/C)C(=O)O[C@@H]2CCN3CC=C(COC(=O)[C@]1(C)O)[C@H]23 | inconclusive: 20.6 µM [inhibitor, partial curve]
14 | N#Cc1c(Cl)c(Cl)c(Cl)c(C#N)c1Cl | active: 25.1 nM and active: 517 nM
15 | COC(=O)C1=C(c2cccc(OCc3ccccc3)c2)C[C@@H]2CC[C@H]1N2C(=O)NCc1ccccc1 | inconclusive: 25.9 µM [inhibitor, single point]
16 | OCC(Br)CBr (centres undefined) | inactive
17 | CCOC(=O)c1cccc(C2=C(CNC(=O)c3cccnc3)[C@H]3CC[C@@H](C2)N3Cc2ccccc2)c1 | active: 20.6 µM
18 | Cc1ccc(NP(=O)(Nc2ccc(C)cc2)Oc2ccccc2)cc1 | inconclusive: 29.1 µM [inhibitor, single point]
19 | CC1C(=O)OC2C(O)C34C5OC(=O)[C@@]3(OC3OC(=O)[C@H](O)[C@]34C(C(C)(C)C)C5O)[C@]12O (some centres undefined) | inactive

— PubChem BioAssay AID686978 (National Center for Advancing Translational Sciences (NCATS), 2013)
